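Method: 48-hour compound exposure of cells in 96-well plates, five concentrations, linear interpolation of endpoints. Here, GI50 denotes the concentration required for 50% inhibition of growth.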 Active and inactive are the calls of the source. No stated cut-off is given here; in the data, active = GI50 up to about 1.1 µM and inactive = higher.
tested on: NCI-H322M; test: DTP human tumour cell line panel, 48 h

Row | SMILES | GI50
1 | O=Cc1ccc(Oc2c3ccccc3nc3ccccc23)cc1 | inactive: 12.6 µM
2 | CCCCc1c2c(nc3c1CCC/C3=C\c1ccccc1)C(=O)C(CN(C)C)CC2 (stereo not drawn) | inactive: 10.9 µM
3 | COC(=O)/C=C\C(C#N)(C#N)/N=C/c1sccc1C | inactive: 17.3 µM
4 | C/C(CCn1[nH]c(=O)ccc1=O)=N\O | inactive: > 100 µM
5 | CSc1nc(=O)c2nc(-c3cccs3)c(-c3cccs3)nc2n1C | inactive: 48.5 µM
6 | COc1ccccc1NC(=S)N/N=C/c1c(C)n(C)n(-c2ccccc2)c1=O | inactive: > 100 µM
7 | COC(=O)/C(=N/NC(N)=O)C(C(=O)C(=O)Nc1ccc(C)cc1)c1nc2ccc(C(=O)c3ccccc3)cc2nc1O (stereo not drawn) | inactive: > 100 µM
8 | COC(=O)NN1C(=O)C(=P(c2ccccc2)(c2ccccc2)c2ccccc2)C(C(=O)OC)=C1C | inactive: > 100 µM
9 | CSc1c(C#N)c(=O)[nH]c2[nH]nc(C)c12 | inactive: > 100 µM
10 | O=C1Nc2ccccc2C12CCCC2 | inactive: > 100 µM
11 | CC1(C)CCCCCCCCCC(C)(CCCCCCCCCCCCO)C1=O (stereo not drawn) | inactive: 18 µM
12 | COc1ccc(/C=c2/sc3n(c2=O)NC2(CCC(C)CC2)NN=3)cc1 (stereo not drawn) | inactive: > 100 µM
13 | c1ccc2[nH]c(CNc3ccc(C4C[Se]N=N4)cc3)nc2c1 (stereo not drawn) | inactive: 35.5 µM
14 | O=C(O)c1cc(=O)c2[nH]c3ccccc3c2s1 | inactive: > 100 µM
15 | CSC1=N/C(=C\c2ccc(C)cc2)C(=O)N1 | inactive: > 100 µM
16 | CCCOP(=S)(N1CC1)N1CC1 | inactive: > 100 µM
17 | CCC(CC)(CO)CNc1cc(Cl)nc(N)n1 | inactive: > 100 µM
18 | C=CCSC1=N/C(=C\c2cccs2)C(=O)N1CC=C | inactive: 48.9 µM
19 | NC(CCc1ncc(-c2ccccc2)s1)C(=O)O (stereo not drawn) | inactive: > 100 µM
20 | O=C(Nc1ccc(Cl)cc1C(F)(F)F)C(=O)C1CCCS1(=O)=O (stereo not drawn) | inactive: > 100 µM
21 | COc1cc2c(cc1C)[n+]([O-])c(C)c(C(=O)C/C(=N/NC(=O)C[N+](C)(C)C)C(=O)Nc1cccc(Cl)c1C)[n+]2[O-] | inactive: > 100 µM

Row | SMILES | GI50
22 | CCOC(=O)C(=Cc1[nH]c2ccccc2c1-c1c[nH]c2ccccc12)C(=O)OCC | inactive: 16.5 µM
23 | CCOC(=O)c1sc2nc(SC)nc3c2c1N=CN3c1ccc(Br)cc1 | inactive: > 100 µM
24 | CCc1cc2c(cc1C(=O)CCC(=O)O)CC1(C2)Cc2cc(CC)c(C(=O)CCC(=O)O)cc2C1 | inactive: > 100 µM
25 | CCCC(=O)NC1=C(NCC)C(=O)c2ccccc2C1=O | inactive: > 100 µM
26 | Cc1ccc(-c2c3nc(c(-c4ccc(C)cc4)c4ccc([nH]4)c(-c4ccc(OCC5COC(C)(C)O5)cc4)c4nc(c(-c5ccc(C)cc5)c5ccc2[nH]5)C=C4)C=C3)cc1 (stereo not drawn) | inactive: > 10 µM
27 | O=[N+]([O-])/C=C\c1c[nH]c2ccc(OCc3ccccc3)cc12 | inactive: 15 µM
28 | O=C(COc1ccc(Cl)cc1)N1CCN(C(=O)COc2ccc(Cl)cc2)c2ccccc21 | inactive: > 100 µM
29 | NS(=O)(=O)c1ccc(N2C(=O)C(=O)N(c3ccccc3)C2=S)cc1 | inactive: > 100 µM
30 | N#CC1(C=O)c2ccccc2C=CN1C(=O)c1ccccc1 (stereo not drawn) | inactive: 70.5 µM
31 | CCOC(=O)C1(N)CC1 | inactive: > 100 µM
32 | CC(=O)OC1COC(n2ccc3cc(Br)c([N+](=O)[O-])cc32)C(OC(C)=O)C1OC(C)=O (stereo not drawn) | inactive: 38.7 µM
33 | COc1cc(/C=C2\N=C(c3ccccc3)N(c3cc4cc(Sc5ccccc5)ccc4[nH]3)C2=O)cc(OC)c1OC | inactive: 20.6 µM
34 | CC1(c2ccc(Cl)cc2)CC(c2ccc(Cl)cc2)=C(C#N)C(=C(C#N)C#N)N1 (stereo not drawn) | inactive: 14.8 µM
35 | O=c1c2ncn(C3CCCO3)c2n(-c2ccccc2)c(=S)n1-c1ccccc1 (stereo not drawn) | inactive: > 100 µM
36 | CCCOP1(=O)C=CC(Cl)=C(C)C1 (stereo not drawn) | inactive: > 100 µM
37 | CCOC(=O)c1nc2ccccc2nc1Oc1ccc(C#N)cc1 | inactive: > 100 µM
38 | Cc1ccc2nc(CN3CCCC(O)C3)cc(=O)n2c1 (stereo not drawn) | inactive: > 100 µM
39 | CCC(=S)N(C)O | inactive: 32.8 µM
40 | Cc1c2ccccc2c(C2C3C(=O)N(c4cccc5ccccc45)C(=O)C3ON2Cc2ccc(CC(N)=O)cc2)c2ccccc12 (stereo not drawn) | inactive: 20.4 µM
41 | COc1ccc(/C=c2/[nH]c(=O)/c(=C\c3ccc(OCc4ccccc4)cn3)[nH]c2=O)cc1 | inactive: 48.5 µM
42 | CC1CCC2c3c([nH]c4ccccc34)C3C(=O)N(c4ccccc4)C(=O)C3C2C1 (stereo not drawn) | inactive: > 250 µM

Row | SMILES | GI50
43 | CCc1n[nH]c(=O)n1NC(=O)CCCC(=O)O | inactive: > 100 µM
44 | CCC/C(=N/NC(=O)C(N)=O)C(CC)C(=O)CCC(=O)N(Cc1ccccc1)Cc1ccccc1 (stereo not drawn) | inactive: > 100 µM
45 | O=C1N=C(S)NNC12c1ccccc1-c1ccccc12 | inactive: > 10 µM
46 | CC(C)(C)OC(=O)N1CCCC1=O | inactive: > 10 µM
47 | CC(=O)CCn1c(=S)sc2ccccc21 | inactive: > 100 µM
48 | CCOC(=O)C(CS)NC(=O)CCCCCCCC(=O)O (stereo not drawn) | inactive: > 100 µM
49 | N#Cc1nc(C(F)(F)F)oc1N | inactive: > 100 µM
50 | O=c1[nH]c(=O)n(C2CC(O)C(COP(=O)(O)OC3CC(n4cc(F)c(=O)[nH]c4=O)OC3COP(=O)(O)OC3CC(n4cc(F)c(=O)[nH]c4=O)OC3COP(=O)(O)OC3CC(n4cc(F)c(=O)[nH]c4=O)OC3COP(=O)(O)OC3CC(n4cc(F)c(=O)[nH]c4=O)OC3COP(=O)(O)OC3CC(n4cc(F)c(=O)[nH]c4=O)OC3COP(=O)(O)OC3CC(n4cc(F)c(=O)[nH]c4=O)OC3COP(=O)(O)OC3CC(n4cc(F)c(=O)[nH]c4=O)OC3COP(=O)(O)OC3CC(n4cc(F)c(=O)[nH]c4=O)OC3COP(=O)(O)OC3CC(n4cc(F)c(=O)[nH]c4=O)OC3CO)O2)cc1F (stereo not drawn) | active: 0.172 µM
51 | CCOc1nc(-c2ccccc2)cc(-c2ccc(N3CCOCC3)cc2)c1C#N | inactive: > 100 µM
52 | CCOP(=O)(OCC)/C(C#N)=C/c1cnc[nH]1 | inactive: > 100 µM
53 | CCOC(=O)/C(=N/Nc1ccc(C)cc1)N1C(=S)N(C)N=C(C)C=C1S | inactive: > 100 µM
54 | CCOC(=O)C(CNc1ccc(O)cc1)NC(=O)c1ccccc1 (stereo not drawn) | inactive: > 100 µM
55 | C/N=C(/NC)N(C)c1nc(=[N+](C)C)ss1.[O-][Cl+3]([O-])([O-])[O-] | inactive: > 100 µM
56 | CC1(C)Oc2ccc3c(=O)cc(-c4cccs4)oc3c2C1C(=O)O (stereo not drawn) | inactive: > 100 µM
57 | CCCC(C)C[C@@H](C)CC(C)/C=C(\C)c1oc(=O)c(C)c(O)c1C.CC[C@@H](C)C[C@@H](C)C[C@@H](C)/C=C(\C)c1oc(=O)c(C)c(O)c1C (stereo partly drawn) | inactive: 16.3 µM
58 | CCOC(=O)Nc1ccc(S(=O)(=O)OC)cc1.CCOC(=O)Nc1ccc(S(=O)(=O)OC)cc1.Nc1ncnc2c1ncn2C1OC(CO)C(O)C1O (stereo not drawn) | inactive: > 100 µM
59 | COc1cc2cc(C(=O)N3CC(COS(C)(=O)=O)c4c3cc(N)c3ccccc43)[nH]c2c(OC)c1OC (stereo not drawn) | active: < 0.0331 µM
60 | COc1cccc(-c2cc(O)c3cc(NC(C)=O)ccc3n2)c1 | inactive: 5.26 µM
61 | O=C(/C=C/c1ccc(Cl)cc1)Oc1ccc(/C=C2\CCCCC2=O)cc1 | inactive: > 100 µM
62 | O=C1C=CC(=O)c2c(Cl)ccc(O)c21 | inactive: 28.6 µM
63 | [O-]c1c2c(nn1-c1ccc(Cl)cc1)c1ccccc1c[n+]2Cc1ccccc1 | inactive: > 100 µM
